± gives the standard deviation. The entries are a selection whose mix differs from that of the whole data set.

The results in this text go back to the supplement of paper PMC10338343.
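Note: 1 nM active piRISC with 0.1 nM target library at 33 °C single turnover.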

The assay relates to MIWI (PIWIL1) piRISC loaded with piRNA #1 (30 nt). The assay is described as follows: pre-steady-state target cleavage rate (min^-1); MIWI and MILI are mouse PIWI proteins and EfPiwi is from a freshwater sponge; tags in brackets are library labels; higher = faster piRNA-guided slicing of the target. To be noted: guide: piRNA #1 5'p-UGAGGUAGUAGGUUGUAUAGUAUCCAGAGG; auxiliary factor: 500 nM mouse GTSF1. In a few lines: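 At 33 °C in HEPES–potassium acetate buffer, a transcribed, DNA-blocked target RNA library […] was exposed for 0–8 or 0–960 min to 1 nM active affinity-purified piRISC carrying a single synthetic guide, with or without 500 nM GTSF1 partner protein. Uncleaved targets were sequenced and normalised to depth and to weakly complementary targets. With three trials pooled and k3 capped at 0.0001 min^-1, a burst-and-steady-state fit produced the pre-steady-state cleavage rate.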
Regarding CCUGUGGAUACUAUACAACCUACUACGUCA, the “pre-steady-state target cleavage rate” value was determined as 0.63 ± 0.066.

For the sequence GGACUGGAUACUAUAUAACCUACUACCUCA, the “pre-steady-state target cleavage rate” value came to 1.8 ± 0.12.

For GGAGAGGAUUCUAUACAUCCUACUACCUCA, the “pre-steady-state target cleavage rate” value was determined as 1.31 ± 0.069.

For GGAGACCAUACUAUACAAACUACUACCUCA, the “pre-steady-state target cleavage rate” value worked out at 0.758 ± 0.04.

For the sequence CCUCUGGAUACUAUACAACCUAAUACCUCA, the “pre-steady-state target cleavage rate” value is 1.61 ± 0.1.

With GGAGUGGAUACAAUUCAACCUACUACCUCA, the “pre-steady-state target cleavage rate” value stood at 1.36 ± 0.1.

As to GGAGACCUUACUAACAACCUACUACCUCA, the “pre-steady-state target cleavage rate” value amounted to 0.189 ± 0.025.

GCAGAGGAUACUAUACAACCUACUACCUCA: the “pre-steady-state target cleavage rate” value amounted to 1.48 ± 0.075.

With GGUCUGGAUUCUUUACAACCUACUACCUCA, the “pre-steady-state target cleavage rate” value worked out at 1.22 ± 0.083.

As to GGAGACCUAUGUAUAGAACCUACUACCUGA, the “pre-steady-state target cleavage rate” value was found to be 0.00398 ± 0.0017.

In the case of GCUCUGGAUACUGAUACAACCUACUACCUCA, the “pre-steady-state target cleavage rate” value worked out at 1.39 ± 0.092.

GGUCUGGAUAGAAUACAACCUACUACCUCA: the “pre-steady-state target cleavage rate” value was determined as 1.39 ± 0.097.

With CCUCUGCAUACUAUACAAGCUACUACCUCA, the “pre-steady-state target cleavage rate” value stood at 1.57 ± 0.078.

For GCUCUGCAUACUUUACAACCUACUACCUCA, the “pre-steady-state target cleavage rate” value was 1.68 ± 0.11.

For the sequence GCUCUGGAUACUAUACAACCUCCUACCUCA, the “pre-steady-state target cleavage rate” value worked out at 1.2 ± 0.052.

For the sequence GGAGACCUAUGAUAUCAACCUACUACCUACA, the “pre-steady-state target cleavage rate” value is less than 0.0001.

On to GGAGACGAUAUAUACAACCUACUACCUCA, for which the “pre-steady-state target cleavage rate” value was 1.06 ± 0.089.

In the case of CCUCUGGAUACUAUACAACCUACAUACCUCA, the “pre-steady-state target cleavage rate” value was determined as 1.91 ± 0.13.

For GGUCUGGUUAGUAUACAACCUACUACCUCA, the “pre-steady-state target cleavage rate” value turned out to be 1.28 ± 0.084.

On to GGAGACGAUACUAUACAACCUACUACGUCA, for which the “pre-steady-state target cleavage rate” value turned out to be 0.801 ± 0.057.

Take GGUCUGGAUACUCUACAACCUACUACCUCA: the “pre-steady-state target cleavage rate” value amounted to 1.56 ± 0.082.

Turning to CCUCUGGAUACUUUACAACCUACAACCUCA, the “pre-steady-state target cleavage rate” value is 1.34 ± 0.1.

Take GGAGAGGAUACUUAUCAACCUACUACCUCA: the “pre-steady-state target cleavage rate” value is 0.62 ± 0.068.

In the case of GCUCUGGAUACUAUAGAACGUACUACCUCA, the “pre-steady-state target cleavage rate” value was 0.154 ± 0.028.
